# Test results reported in the supplement of paper PMC8728848.
# Some of the results follow.
# B1: PA-IL (Pseudomonas aeruginosa), Q05097 (protein)
# chain: MAWKGEVLANNEAGQVTSIIYNPGDVITIVAAGWASYGPTQKWGPQGDREHPDQGLICHDAFCGALVMKIGNSGTIPVNTGLFRWVAPNNVQGAITLIYNDVPGTYGNNSGSFSVNIGKDQS
# Key:
# Experiment in all cases: glycan array binding signal (z-score within array); higher = stronger binding
# Settings in all cases: glycan notation: IUPAC condensed, linker removed
# [1] = biological target: Fuc(a1-2)Gal
# Procedure, shortened: (§1)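 Glycan array data were curated from 3228 arrays in the Consortium for Functional Glycomics database and kept only where the protein sequence was available. Glycan names were converted to IUPAC-condensed notation, and columns mapping to the same glycan were averaged. The binding signal is a within-array Z-score, averaged across arrays of the same protein sequence at different concentrations or buffers and across linkers. Negative Z-scores can be read as non-binding.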
# [2] = biological target: Fuc(a1-2)Gal(b1-3)GalNAc
# Procedure, shortened: as §1
# [3] = biological target: Fuc(a1-2)Gal(b1-3)GalNAc(a1-3)[Fuc(a1-2)]Gal(b1-4)Glc
# Procedure, shortened: as §1
# [4] = biological target: Fuc(a1-2)Gal(b1-3)GalNAc(a1-3)[Fuc(a1-2)]Gal(b1-4)GlcNAc
# Procedure, shortened: as §1
# [5] = biological target: Fuc(a1-2)Gal(b1-3)GalNAc(b1-3)Gal
# Procedure, shortened: as §1
# [6] = biological target: Fuc(a1-2)Gal(b1-3)GalNAc(b1-3)Gal(a1-4)Gal(b1-4)Glc
# Procedure, shortened: as §1
# [7] = biological target: Fuc(a1-2)Gal(b1-3)GalNAc(b1-4)[Neu5Ac(a2-3)]Gal(b1-4)Glc
# Procedure, shortened: as §1
# [8] = biological target: Fuc(a1-2)Gal(b1-3)GlcNAc
# Procedure, shortened: as §1
# [9] = biological target: Fuc(a1-2)Gal(b1-3)GlcNAc(b1-2)Man(a1-3)[Fuc(a1-2)Gal(b1-3)GlcNAc(b1-2)Man(a1-6)]Man(b1-4)GlcNAc(b1-4)GlcNAc
# Procedure, shortened: as §1
# [10] = biological target: Fuc(a1-2)Gal(b1-3)GlcNAc(b1-2)Man(a1-3)[Fuc(a1-2)Gal(b1-3)GlcNAc(b1-2)Man(a1-6)]Man(b1-4)GlcNAc(b1-4)[Fuc(a1-6)]GlcNAc
# Procedure, shortened: as §1
# [11] = biological target: Fuc(a1-2)Gal(b1-3)GlcNAc(b1-3)Gal(b1-4)Glc
# Procedure, shortened: as §1
# [12] = biological target: Fuc(a1-2)Gal(b1-3)GlcNAc(b1-3)GalNAc
# Procedure, shortened: as §1
# [13] = biological target: Fuc(a1-2)Gal(b1-3)GlcNAc(b1-3)[Fuc(a1-2)Gal(b1-3)GlcNAc(b1-6)]GalNAc
# Procedure, shortened: as §1
# [14] = biological target: Fuc(a1-2)Gal(b1-3)GlcNAc(b1-3)[Fuc(a1-3)[Gal(b1-4)]GlcNAc(b1-6)]Gal(b1-4)Glc
# Procedure, shortened: as §1
# [15] = biological target: Fuc(a1-2)Gal(b1-3)GlcNAc(b1-3)[Gal(b1-4)GlcNAc(b1-6)]Gal(b1-4)Glc
# Procedure, shortened: as §1
# [16] = biological target: Fuc(a1-2)Gal(b1-3)GlcNAc(b1-3)[Neu5Ac(a2-6)Gal(b1-4)GlcNAc(b1-6)]Gal(b1-4)Glc
# Procedure, shortened: as §1
# [17] = biological target: Fuc(a1-2)Gal(b1-3)GlcNAc6S
# Procedure, shortened: as §1
# [18] = biological target: Fuc(a1-2)Gal(b1-3)[Fuc(a1-4)]GlcNAc
# Procedure, shortened: as §1
# [19] = biological target: Fuc(a1-2)Gal(b1-3)[Fuc(a1-4)]GlcNAc(b1-2)Man(a1-3)[Fuc(a1-2)Gal(b1-3)[Fuc(a1-4)]GlcNAc(b1-2)Man(a1-3)]Man(b1-4)GlcNAc(b1-4)GlcNAc
# Procedure, shortened: as §1
# [20] = biological target: Fuc(a1-2)Gal(b1-3)[Fuc(a1-4)]GlcNAc(b1-2)Man(a1-3)[Fuc(a1-2)Gal(b1-3)[Fuc(a1-4)]GlcNAc(b1-2)Man(a1-6)]Man(b1-4)GlcNAc(b1-4)GlcNAc
# Procedure, shortened: as §1
# [21] = biological target: Fuc(a1-2)Gal(b1-3)[Fuc(a1-4)]GlcNAc(b1-2)Man(a1-3)[Fuc(a1-2)Gal(b1-3)[Fuc(a1-4)]GlcNAc(b1-2)Man(a1-6)]Man(b1-4)GlcNAc(b1-4)[Fuc(a1-6)]GlcNAc(b1-4)[Fuc(a1-6)]GlcNAc
# Procedure, shortened: as §1
# [22] = biological target: Fuc(a1-2)Gal(b1-3)[Fuc(a1-4)]GlcNAc(b1-3)[Fuc(a1-3)[Gal(b1-4)]GlcNAc(b1-6)]Gal(b1-4)Glc
# Procedure, shortened: as §1
# [23] = biological target: Fuc(a1-2)Gal(b1-3)[Fuc(a1-4)]GlcNAc(b1-3)[Gal(b1-4)GlcNAc(b1-6)]Gal(b1-4)Glc
# Procedure, shortened: as §1
# [24] = biological target: Fuc(a1-2)Gal(b1-4)Fuc(a1-3)]GlcNAc(b1-2)Man(a1-3)[Fuc(a1-2)Gal(b1-4)[Fuc(a1-3)]GlcNAc(b1-2)Man(a1-6)]Man(b1-4)GlcNAc(b1-4)GlcNAc
# Procedure, shortened: as §1
# [25] = biological target: Fuc(a1-2)Gal(b1-4)Glc
# Procedure, shortened: as §1
# [26] = biological target: Fuc(a1-2)Gal(b1-4)Glc6S
# Procedure, shortened: as §1
# [27] = biological target: Fuc(a1-2)Gal(b1-4)GlcNAc
# Procedure, shortened: as §1
# [28] = biological target: Fuc(a1-2)Gal(b1-4)GlcNAc(b1-2)Man
# Procedure, shortened: as §1
# [29] = biological target: Fuc(a1-2)Gal(b1-4)GlcNAc(b1-2)Man(a1-3)[Fuc(a1-2)Gal(b1-4)GlcNAc(b1-2)Man(a1-6)]Man(b1-4)GlcNAc(b1-4)GlcNAc
# Procedure, shortened: as §1
# [30] = biological target: Fuc(a1-2)Gal(b1-4)GlcNAc(b1-2)Man(a1-3)[Fuc(a1-2)Gal(b1-4)GlcNAc(b1-2)Man(a1-6)]Man(b1-4)GlcNAc(b1-4)[Fuc(a1-6)]GlcNAc
# Procedure, shortened: as §1
binder,measurement,setting,value
B1,glycan array binding signal (z-score),[1],-0.23
same,glycan array binding signal (z-score),[2],-0.228
same,glycan array binding signal (z-score),[3],-0.224
same,glycan array binding signal (z-score),[4],-0.238
same,glycan array binding signal (z-score),[5],-0.225
same,glycan array binding signal (z-score),[6],-0.234
same,glycan array binding signal (z-score),[7],-0.229
same,glycan array binding signal (z-score),[8],-0.226
same,glycan array binding signal (z-score),[9],-0.196
same,glycan array binding signal (z-score),[10],-0.217
same,glycan array binding signal (z-score),[11],-0.233
same,glycan array binding signal (z-score),[12],-0.231
same,glycan array binding signal (z-score),[13],-0.177
same,glycan array binding signal (z-score),[14],-0.228
same,glycan array binding signal (z-score),[15],-0.228
same,glycan array binding signal (z-score),[16],-0.224
same,glycan array binding signal (z-score),[17],-0.23
same,glycan array binding signal (z-score),[18],-0.23
same,glycan array binding signal (z-score),[19],-0.189
same,glycan array binding signal (z-score),[20],-0.22
same,glycan array binding signal (z-score),[21],-0.214
same,glycan array binding signal (z-score),[22],-0.233
same,glycan array binding signal (z-score),[23],-0.228
same,glycan array binding signal (z-score),[24],-0.202
same,glycan array binding signal (z-score),[25],-0.223
same,glycan array binding signal (z-score),[26],-0.219
same,glycan array binding signal (z-score),[27],-0.224
same,glycan array binding signal (z-score),[28],-0.202
same,glycan array binding signal (z-score),[29],-0.223
same,glycan array binding signal (z-score),[30],-0.215
